{
  "source": "paper PMC5834211",
  "assay_in_all_cases": "co-IP; 293T cells cotransfected; whole cell lysates immunoprecipitated with anti-Flag beads, immunoblotted with anti-HA and anti-Flag (S5A, Fig 5I, S6A); in S5E with 20 ng Flag-MDA5 and intracellular HMW Poly(I:C) at the indicated time points",
  "key": {"Flag-mMDA5 (mouse)": {"biological_target": "T1, Flag-mMDA5 (mouse) (UniProt Q8R5F7)", "T1 sequence": "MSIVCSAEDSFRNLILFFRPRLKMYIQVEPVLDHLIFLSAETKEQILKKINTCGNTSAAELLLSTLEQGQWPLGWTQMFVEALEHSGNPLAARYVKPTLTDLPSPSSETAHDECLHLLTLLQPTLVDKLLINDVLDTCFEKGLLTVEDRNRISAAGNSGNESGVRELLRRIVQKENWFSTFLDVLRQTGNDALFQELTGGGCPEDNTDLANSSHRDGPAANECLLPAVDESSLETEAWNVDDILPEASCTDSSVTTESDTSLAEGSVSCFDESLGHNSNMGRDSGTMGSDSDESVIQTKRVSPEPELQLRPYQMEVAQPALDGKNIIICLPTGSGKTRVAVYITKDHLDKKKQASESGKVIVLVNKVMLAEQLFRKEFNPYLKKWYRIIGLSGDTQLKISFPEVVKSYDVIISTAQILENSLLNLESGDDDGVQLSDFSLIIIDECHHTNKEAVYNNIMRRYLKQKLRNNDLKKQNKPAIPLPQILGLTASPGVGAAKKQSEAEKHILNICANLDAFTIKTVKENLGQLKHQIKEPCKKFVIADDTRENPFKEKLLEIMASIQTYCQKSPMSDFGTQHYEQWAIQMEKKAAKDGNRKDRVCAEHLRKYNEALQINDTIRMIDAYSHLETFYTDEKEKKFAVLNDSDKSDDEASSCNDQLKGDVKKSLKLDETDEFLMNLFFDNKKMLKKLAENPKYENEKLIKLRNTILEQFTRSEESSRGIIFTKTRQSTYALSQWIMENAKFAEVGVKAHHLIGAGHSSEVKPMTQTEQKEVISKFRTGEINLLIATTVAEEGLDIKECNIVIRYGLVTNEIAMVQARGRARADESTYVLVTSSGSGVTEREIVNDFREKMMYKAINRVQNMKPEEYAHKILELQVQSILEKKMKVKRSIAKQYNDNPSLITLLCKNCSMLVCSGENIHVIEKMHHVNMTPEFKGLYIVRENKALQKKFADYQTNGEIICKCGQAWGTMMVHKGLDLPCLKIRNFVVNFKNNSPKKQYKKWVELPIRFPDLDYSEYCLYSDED"}, "Flag-mMAVS (mouse)": {"biological_target": "T2, Flag-mMAVS (mouse) (UniProt Q8VCF0)", "T2 sequence": "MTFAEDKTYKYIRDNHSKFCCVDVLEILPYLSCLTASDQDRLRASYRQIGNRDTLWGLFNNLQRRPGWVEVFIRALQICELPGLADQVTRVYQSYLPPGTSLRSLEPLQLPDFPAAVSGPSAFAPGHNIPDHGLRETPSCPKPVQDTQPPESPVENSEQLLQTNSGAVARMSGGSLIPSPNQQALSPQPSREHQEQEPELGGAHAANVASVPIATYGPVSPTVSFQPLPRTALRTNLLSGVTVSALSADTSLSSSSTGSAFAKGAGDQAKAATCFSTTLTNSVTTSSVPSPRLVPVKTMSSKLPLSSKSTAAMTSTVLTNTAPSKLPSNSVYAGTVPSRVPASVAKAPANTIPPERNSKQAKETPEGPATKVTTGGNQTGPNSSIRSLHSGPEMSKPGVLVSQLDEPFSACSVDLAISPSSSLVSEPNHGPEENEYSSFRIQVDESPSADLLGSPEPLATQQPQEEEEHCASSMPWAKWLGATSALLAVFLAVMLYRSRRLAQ"}, "Flag-mRIG-I (mouse)": {"biological_target": "T3, Flag-mRIG-I (mouse) (UniProt Q6Q899)", "T3 sequence": "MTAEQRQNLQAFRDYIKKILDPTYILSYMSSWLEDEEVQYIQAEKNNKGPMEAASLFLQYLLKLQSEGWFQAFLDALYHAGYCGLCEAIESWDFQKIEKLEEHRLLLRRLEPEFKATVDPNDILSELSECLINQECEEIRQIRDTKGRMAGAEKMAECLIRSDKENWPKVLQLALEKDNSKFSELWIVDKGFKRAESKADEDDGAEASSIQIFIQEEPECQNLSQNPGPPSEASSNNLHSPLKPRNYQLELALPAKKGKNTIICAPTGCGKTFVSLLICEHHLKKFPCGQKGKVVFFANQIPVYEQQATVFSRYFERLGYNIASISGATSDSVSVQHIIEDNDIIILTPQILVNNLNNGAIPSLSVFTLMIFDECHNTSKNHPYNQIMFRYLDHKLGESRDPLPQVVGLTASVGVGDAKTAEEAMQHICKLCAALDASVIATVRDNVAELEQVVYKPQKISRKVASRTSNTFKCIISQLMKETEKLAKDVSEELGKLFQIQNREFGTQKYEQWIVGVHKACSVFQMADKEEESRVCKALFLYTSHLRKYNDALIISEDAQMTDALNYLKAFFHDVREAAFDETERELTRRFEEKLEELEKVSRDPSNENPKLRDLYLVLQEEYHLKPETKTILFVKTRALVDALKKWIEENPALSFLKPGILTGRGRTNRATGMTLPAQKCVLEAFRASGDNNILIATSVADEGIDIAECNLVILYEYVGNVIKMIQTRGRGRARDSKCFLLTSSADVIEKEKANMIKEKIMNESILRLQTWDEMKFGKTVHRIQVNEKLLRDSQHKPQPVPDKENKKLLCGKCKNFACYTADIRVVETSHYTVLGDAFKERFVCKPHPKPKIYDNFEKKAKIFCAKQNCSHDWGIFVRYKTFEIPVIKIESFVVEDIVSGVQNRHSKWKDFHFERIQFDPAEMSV"}},
  "note": "Results are given in words; binding and its absence hold for the method and conditions named. Binding seen in cells or lysates may run through a third protein. Some entries that bind do so weakly or less than the wild type. Tags and fused reporters may be left off the sequences shown.",
  "data": [
    {"binder": "HA-mouse (m)DHX29 (protein, UniProt Q6PGC1 1-1365) MGGKNKKHKAPGAAAMRAAVSASRARSAEAGAVGEAQSKKPVARPAPAVPTGAREPRVKQGPKIYSFNSANDSGGSANLDKSILKVVINNKLEQRIIGVINEHKKQNSDRGAISGRLSAKKLQDLYMALQAFSFKTKDIEDAMTNTLLHGGDLHSALDWLCLNLSDDALPEGFSQEFEEQQPKSRPKFQSVQIQATLSPPQQTKTKRQEEDPKIKPKKEETTVEVNMKEWILRYAEQQDEEEKGEGSKGLEEEEKFDPNQRYLNLAARLLDAKEQAAAFKLEKNKQGQKEAQEKIRKFQREMETLEDHPIFNPAIKISHQQNEKKKPAPATEAESALNLNLFEKSAAATEEEKGKKKEPHDVRNFDYTARSWTGKSPKQFLIDWVRKNLPKSPNPSFEKVAVGRYWKCRVRVVRSEDDVLVVCPTILTEDGMQAQHLGATLALYRLVKGQSVHQLLPPTYRDVWLEWSDEEKKREELNKMETNKPRDLFIAKLLNKLKQQQQQQQQQRPESEKGGSEDPEESWENLVSDEDLAALSLEPTSAEDLAPVRSLFRRLQSTPKYQRLLKERQQLPVFKHRDSIVETLKRHRVVVVAGETGSGKSTQVPHFLLEDLLLDECGARKCNIVCTQPRRISAVSLATRVCEELGCESGPGGRNSLCGYQIRMESRASESTRLLYCTTGVLLRKLQEDGLLADVSHVIVDEVHERSVQSDFLLVILKEILQKRSDLHLILMSATVDSDKFSTYFTHCPILRISGRSYPVEVFHLEDIVEETGFVLEKDSEYCQKFLEEEEEITINVTSKAGGVKKYQEYIPVQSGASPELNPFYQKYSSRTQHAILYMNPHKINLDLILELLVYLDKSPQFRNIEGAVLIFLPGLAHIQQLYDLLSSDRRFYSERYQVIALHSVLSTQDQAAAFMFPPPGVRKIVLATNIAETGITIPDVVFVIDTGRTKENKYHESSQMSSLVETFVSKASALQRQGRAGRVRDGFCFRLYTRERFEGFLDYSVPEILRVPLEELCLHIMKCDLGSPEDFLSKALDPPQLQVISNAMNLLRKIGACEPNEPKLTPLGQHLAALPVNVKIGKMLIFGAIFGCLEPVATLAAVMTEKSPFITPIGRKDEADLAKSSLAVADSDHLTIYNAYLGWKKAQQEGGFRSEISYCQRNFLNRTSLLTLEDVKQELMKLVKAAGFSSSPSWEGRKGPQTLSFQDIALLKAVLAAGLYDSVGKIMCTKSVDVTEKLACMVETAQGKAQVHPSSVNRDLQTYGWLLYQEKVRYTRVYLRETTLITPFPVLLFGGDIEVQHRERLLSVDGWIYFQAPVKIAVIFKQLRVLIDSVLRKKLENPKMSLENDKILQIITELIKTENN", "values": [
      {"measurement": "binding", "setting": "Flag-mMDA5 (mouse)", "result": "binds"},
      {"measurement": "binding", "setting": "Flag-mMAVS (mouse)", "result": "no binding"},
      {"measurement": "binding", "setting": "Flag-mRIG-I (mouse)", "result": "no binding"}
    ]}
  ]
}
